The text below walks through data of publication PMC9911399, “Two distinct binding modes provide the RNA-binding protein RbFox with extraordinary sequence specificity”.

Residue numbers refer to the chain shown, from its start. This is one part of the list.

To fix the notation:
T1: RBFOX1 RRM (Homo sapiens, UniProt Q9NWB1 109-208)
T1 sequence: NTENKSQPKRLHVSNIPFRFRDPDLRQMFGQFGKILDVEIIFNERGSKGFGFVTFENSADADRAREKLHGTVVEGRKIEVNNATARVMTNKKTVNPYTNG

B1: CCACGGC (DNA:RNA)
RNA: GGGAGACCGGAAUUCAGAUUGUCCCCACGGCUUAAAUCCCGUCGUAGCCACCA
DNA 1: CAATCTGAATTCCGGTCTCCC
DNA 2: TGGTGGCTACGACGGGATT
B2: AAUCAGG (DNA:RNA)
RNA: B1 RNA with C25A, C26A, A27U, G29A, C31G
DNA 1: CAATCTGAATTCCGGTCTCCC
DNA 2: TGGTGGCTACGACGGGATT
B3: GCGCACC (DNA:RNA)
RNA: B1 RNA with C25G, A27G, G29A, G30C
DNA 1: CAATCTGAATTCCGGTCTCCC
DNA 2: TGGTGGCTACGACGGGATT
B4: UUCGUGA (DNA:RNA)
RNA: B1 RNA with C25U, C26U, A27C, C28G, G29U, C31A
DNA 1: CAATCTGAATTCCGGTCTCCC
DNA 2: TGGTGGCTACGACGGGATT
B5: ACAAGGA (DNA:RNA)
RNA: B1 RNA with C25A, C28A, C31A
DNA 1: CAATCTGAATTCCGGTCTCCC
DNA 2: TGGTGGCTACGACGGGATT
B6: CGACCCC (DNA:RNA)
RNA: B1 RNA with C26G, G29C, G30C
DNA 1: CAATCTGAATTCCGGTCTCCC
DNA 2: TGGTGGCTACGACGGGATT
B7: ACCGCAA (DNA:RNA)
RNA: B1 RNA with C25A, A27C, C28G, G29C, G30A, C31A
DNA 1: CAATCTGAATTCCGGTCTCCC
DNA 2: TGGTGGCTACGACGGGATT
B8: CUCUAGG (DNA:RNA)
RNA: B1 RNA with C26U, A27C, C28U, G29A, C31G
DNA 1: CAATCTGAATTCCGGTCTCCC
DNA 2: TGGTGGCTACGACGGGATT
B9: CCGCUUC (DNA:RNA)
RNA: B1 RNA with A27G, G29U, G30U
DNA 1: CAATCTGAATTCCGGTCTCCC
DNA 2: TGGTGGCTACGACGGGATT
B10: UAGACUG (DNA:RNA)
RNA: GGGAGACCGGAAUUCAGAUUGUCCUAGACUGUUAAAUCCCGUCGUAGCCACCA
DNA 1: CAATCTGAATTCCGGTCTCCC
DNA 2: TGGTGGCTACGACGGGATT
B11: UGAAGCU (DNA:RNA)
RNA: B1 RNA with C25U, C26G, C28A, G30C, C31U
DNA 1: CAATCTGAATTCCGGTCTCCC
DNA 2: TGGTGGCTACGACGGGATT
B12: GCUAGUC (DNA:RNA)
RNA: B1 RNA with C25G, A27U, C28A, G30U
DNA 1: CAATCTGAATTCCGGTCTCCC
DNA 2: TGGTGGCTACGACGGGATT
B13: ACGCAAU (DNA:RNA)
RNA: B1 RNA with C25A, A27G, G29A, G30A, C31U
DNA 1: CAATCTGAATTCCGGTCTCCC
DNA 2: TGGTGGCTACGACGGGATT
B14: CAUCGCG (DNA:RNA)
RNA: B1 RNA with C26A, A27U, G30C, C31G
DNA 1: CAATCTGAATTCCGGTCTCCC
DNA 2: TGGTGGCTACGACGGGATT
B15: UCGCGGG (DNA:RNA)
RNA: B1 RNA with C25U, A27G, C31G
DNA 1: CAATCTGAATTCCGGTCTCCC
DNA 2: TGGTGGCTACGACGGGATT
B16: GGAACCA (DNA:RNA)
RNA: B10 RNA with U25G, A26G, G27A, U30C, G31A
DNA 1: CAATCTGAATTCCGGTCTCCC
DNA 2: TGGTGGCTACGACGGGATT
B17: GUUUACC (DNA:RNA)
RNA: B1 RNA with C25G, C26U, A27U, C28U, G29A, G30C
DNA 1: CAATCTGAATTCCGGTCTCCC
DNA 2: TGGTGGCTACGACGGGATT
B18: CCAUCCA (DNA:RNA)
RNA: B1 RNA with C28U, G29C, G30C, C31A
DNA 1: CAATCTGAATTCCGGTCTCCC
DNA 2: TGGTGGCTACGACGGGATT
B19: UAUCGGA (DNA:RNA)
RNA: B1 RNA with C25U, C26A, A27U, C31A
DNA 1: CAATCTGAATTCCGGTCTCCC
DNA 2: TGGTGGCTACGACGGGATT
B20: GUGACAU (DNA:RNA)
RNA: B10 RNA with U25G, A26U, U30A, G31U
DNA 1: CAATCTGAATTCCGGTCTCCC
DNA 2: TGGTGGCTACGACGGGATT

The target of this test is T1, RBFOX1 RRM. Put plainly: EMSA; HiTS-Eq, 1 nM pool, 10 min; buffer printed only for the single-RNA assays: 10 mM Tris pH 7.5, 150 mM NaCl, 3.4 mM EDTA, 0.001% NP-40, 30 C. Particulars: tags: His6 N-terminal (pET28a); label: 5' 32P. Put shortly: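 These values rest on relative association constants, computed from read-count changes of each RNA species versus the control reaction and normalised to the cognate motif. Reads came from free RNA recovered by 8% native PAGE after purified RbFox RRM (wild type or mutant) at increasing concentrations was equilibrated for 10 min in 50 µL with 1 nM of a 5′-radiolabelled pool with 7 randomized nucleotides and DNA-annealed flanks.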
Background: Mobility shift assays separate free from complexed probe on a gel.
With B1, the binding signal was 0.00532 KA relative to UGCAUGU.
To B2 belongs 0.00703 KA relative to UGCAUGU.
In the case of B3 it was 0.0133 KA relative to UGCAUGU; in that of B4, 0.0173 KA relative to UGCAUGU.
To B5 belongs 0.00371 KA relative to UGCAUGU; to B6, 0.00568 KA relative to UGCAUGU; to B7, 0.00255 KA relative to UGCAUGU.
Take B8: the binding signal is 0.0121 KA relative to UGCAUGU.
To B9 belongs 0.0138 KA relative to UGCAUGU.
To B10 belongs 0.019 KA relative to UGCAUGU.
As to B11, the binding signal was 0.0134 KA relative to UGCAUGU.
In the case of B12 it was 0.0273 KA relative to UGCAUGU; in that of B13, 0.00218 KA relative to UGCAUGU.
In the case of B14, the binding signal was 0.00706 KA relative to UGCAUGU.
In the case of B15 it was 0.0117 KA relative to UGCAUGU; in that of B16, 0.00565 KA relative to UGCAUGU.
With B17, the binding signal was 0.0122 KA relative to UGCAUGU.
Regarding B18, the binding signal is 0.00471 KA relative to UGCAUGU.
In the case of B19 it was 0.000742 KA relative to UGCAUGU.
In the case of B20 it was 0.00809 KA relative to UGCAUGU.
